Measured values: patent US9975921B2, “Crystal forms of anamorelin” (Helsinn Healthcare SA, priority 2004, dated 2018)
Entries with a single value are a further part of the results.

Test: 12 month stability study: DSC (USP <891>)
Format: physicochemical
Details: 1 month
Protocol: Crystalline (3R)-1-(2-methylalanyl-D-tryptophyl)-3-(phenylmethyl)-3-piperidinecarboxylic acid 1,2,2-trimnethylhydrazide was placed in double plastic bags, closed under a nitrogen blanket, and placed inside a small fiberboard container, the physical appearance, water content, purity and crystallinity were tested every three months for a period of 12 months under a variety of conditions.

[1] = 5° C., second DSC thermal event
[2] = 25° C. 60% RH, first DSC thermal event
[3] = 25° C. 60% RH, second DSC thermal event

DSC Onset (5° C., first DSC thermal event): 81.8 °C | DSC Peak (5° C., first DSC thermal event): 110.4 °C | DSC Onset [1]: 116.0 °C | DSC Peak [1]: 118.4 °C | DSC Onset [2]: 107.0 °C | DSC Peak [2]: 110.3 °C | DSC Onset [3]: 121.3 °C | DSC Peak [3]: 122.2 °C
SMILES: CN(C)N(C)C(=O)[C@@]1(Cc2ccccc2)CCCN(C(=O)[C@@H](Cc2c[nH]c3ccccc23)NC(=O)C(C)(C)N)C1 [crystalline anamorelin, (3R)-1-(2-methylalanyl-D-tryptophyl)-3-(phenylmethyl)-3-piperidinecarboxylic acid 1,2,2-trimethylhydrazide]
